In the RNAGym collection of RNA variant scans (doi:10.7554/elife.90254):
The source gives no read counts; variants with many changes may rest on few reads.

B1: LINE1-mini (parent)
chain: GGCAGAGCUCAACACAGCGUGGCAAAGUGGCUGUGGCUAGACUGCC

Variants of: B1
Experiment: self-cleavage, relative activity (ratio to wild type); higher = more cleavage; in vitro, sequencing; the parent is a self-cleaving ribozyme
Variant GGCGUAGCUCAAAACCGCGUGGCAAAGGGGCUGUGGCGAGCCUGCC [A4G G5U C13A A16C U28G U38G A41C] has a self-cleavage of 0.26.
Work on GGCAGAGCUCAACACAGCGUGCCACAGGGGCUGUGGCUAGACUUGC [G22C A25C U28G G44U C45G] yielded a self-cleavage of 0.13.
Work on GGCAGAGCGCAACACAGCGCGGCAAAGAGGCUGUGGUUAGACUGCC [U9G U20C U28A C37U] yielded a self-cleavage of 0.02.
Work on GGAAUAGCUCAACACAGCGUGGCAAAGUGACUGUGGCUACACUGCC [C3A G5U G30A G40C] yielded a self-cleavage of 0.11.
For AGGACGGCUCAACACAGCGUGGCAUAGUGGCUGUGGCCAGACUGCC [G1A C3G G5C A6G A25U U38C], the self-cleavage was 0.07.
Work on GGCAGAGCUAAACAUAGCGUGGCCAAGUGGCUGUGGCUAGACUGCC [C10A C15U A24C] yielded a self-cleavage of 0.04.
GGCAGGGCUCAACACAGCGUGGCAAAGUGAAUGUGGCUAGACUGCC [A6G G30A C31A] gave a self-cleavage of 0.05.
GGACGAGCUCAACACAGCUUGGCAAAGUGGCUGUGGCUUGACUGCC [C3A A4C G19U A39U] gave a self-cleavage of 0.52.
In the case of GGCAGGGAUCCCCACAGCGUGGCUAAGUGGCUGUGGCUAGACUGCC [A6G C8A A11C A12C A24U], the self-cleavage is reported as 0.02.
Variant UGCAGAGCUCAACACAGCGUGUCAAAGUGGCUGUGGCUAGACUGAC [G1U G22U C45A] has a self-cleavage of 0.44.
In the case of GGCAGAGCUCAAAACAGCGUGGCACAGUAGCCGUCGCUAGACUGCC [C13A A25C G29A U32C G35C], the self-cleavage is reported as 0.07.
In the case of GGCAGAGCUCAACAAAGCGUUGCAAAGUGGCUGUGGCUAGACUGUC [C15A G21U C45U], the self-cleavage is reported as 0.04.
With GGCAGAGCUAAACACAGUGUGGCUAAGUGGCUGUGGGCAGACUGCC [C10A C18U A24U C37G U38C] the self-cleavage was 0.
Work on GACAGAGCUCAACAAAGCGUGGCAAAGUGGCUGUGGAUAGACUGCC [G2A C15A C37A] yielded a self-cleavage of 0.2.
Variant GGCAGAGCUCAACACAGCAUGGCAAAGUGACUGUGCGUAGACUGCC [G19A G30A G36C C37G] has a self-cleavage of 0.05.
For GGCACAGCUCAACACUGCGUGGCUAAGUGGCUGUGGCUAGACUGCC [G5C A16U A24U], the self-cleavage was 0.09.
In the case of GUCAGGGCUCAACACAGCCUGGCAAAGGGGCUGUGGUUAGACUGCC [G2U A6G G19C U28G C37U], the self-cleavage is reported as 0.01.
GGCAGAGCUCAAUACAGCAUGACAAAGUGCCUGUGGCUAGACUCCC [C13U G19A G22A G30C G44C] showed a self-cleavage of 0.02.
GGCAGAGCUUAACACAGCGUGGGAAAAAGGCUGUGGCUAGCCUGCC [C10U C23G G27A U28A A41C] gave a self-cleavage of 0.02.
In the case of GGCAGAGUUCAAAUCAGCGUGGCAAAGUGGCUGUGGCUGUACUGCC [C8U C13A A14U A39G G40U], the self-cleavage is reported as 0.06.
GGCAGAGCUCAACACAGCGUGGCAGAGUGGCUGUGGCUAGUCUGUC [A25G A41U C45U] showed a self-cleavage of 0.05.
For GGCCGAGCUCAACACAGCGUGGCAAAUUGGCUGUGGCUAUACUGCC [A4C G27U G40U], the self-cleavage was 0.39.
For UGCGGAGCUCAACACAGCGUGGCAAAGUGGCCGUGGCUAGACUGCC [G1U A4G U32C], the self-cleavage was 0.11.
Work on GGCAAACCUCAACACAGCGUGGCAAGGUGGCUGUGGGUAGACUGUC [G5A G7C A26G C37G C45U] yielded a self-cleavage of 0.09.
GGCAGAGAUCAAGACAGAGUGGCAAAAUGGCUGUGGCUAGACUGCA [C8A C13G C18A G27A C46A] showed a self-cleavage of 0.03.
Variant GGCAGAGCUAAAUACCGCGUGGCAAAGUGGCUGUGGCUAGACUGCC [C10A C13U A16C] has a self-cleavage of 0.01.
GGCAGAGCUCAACAAAACGUGGCAAAGUGGCUGUGACUAGCCUGCC [C15A G17A G36A A41C] showed a self-cleavage of 0.05.
Work on GGCAGAUCUUAACACAGCGUGGGAGAGUGGCUGUGGCUACACUGCC [G7U C10U C23G A25G G40C] yielded a self-cleavage of 0.05.
GGCAGAGCUCACCACACCAUGGCAAAAUGGCUGUGGCUAGACUUCC [A12C G17C G19A G27A G44U] gave a self-cleavage of 0.02.
GGCAGAACUGAACACUGCGUGGCAAUGUGGCUUUGGCUAGACUGCC [G7A C10G A16U A26U G33U] showed a self-cleavage of 0.01.
With GCCAGUGCUCACCACAGCGUGGCAAAGUGGCUGUCGCUAGACUGCC [G2C A6U A12C G35C] the self-cleavage was 0.08.
GGCAGAGCUCAAAACAGCGUGGCAAAGUGGGUGUGGCUAGACAGCC [C13A C31G U43A] showed a self-cleavage of 0.19.
GGCGGAGGUCAAAACAGCGUGGCAAAGUGGCUGUGGCUAGACUGCC [A4G C8G C13A] gave a self-cleavage of 0.03.
GGCAGAGAUGAACAGAGCGUUGCAAAGUUGCUGUGGCUAGACUGCC [C8A C10G C15G G21U G29U] gave a self-cleavage of 0.01.
Work on GGCAGGGCUUAACACAGCGUGGCAAAGUGGCUGUGGCUAAACUGCC [A6G C10U G40A] yielded a self-cleavage of 0.01.
In the case of GGCAGAACUCAACGCAGCGUGGUACAGUGGCUGUGGCUAGACUGCA [G7A A14G C23U A25C C46A], the self-cleavage is reported as 0.09.
Variant GGCAGUUCUCAACACAGCGUGGCAAAGUGGCUGUGGCUAGACUGCG [A6U G7U C46G] has a self-cleavage of 0.29.
GGCAGAGCUCAACACAGCGGGGCAAAGAGGCUGUGGCUAGACUGUC [U20G U28A C45U] showed a self-cleavage of 0.78.
For GCCAGAGCUCAACACAGCCUGGCAAAGUGGCUGUGUUUAGACUGCC [G2C G19C G36U C37U], the self-cleavage was 0.01.
Work on GGCGGAGCUCAACACUGCGUGGCAAAGUGGCUGUGGCGAGACUGCC [A4G A16U U38G] yielded a self-cleavage of 0.1.
GGCAUAGCUCAAAACAGCAUGGCAAAGUGGCUGCGGCUAGACUGCA [G5U C13A G19A U34C C46A] showed a self-cleavage of 0.06.
For GGCAGAGUUCAACAAAGCGUGGCAAAAUGGCUGUGGCUAGACUGCC [C8U C15A G27A], the self-cleavage was 0.07.
In the case of GGCAGAGAUCAACACAGCGUGGCAGCGUGGCUGUGGCUAGACUGCC [C8A A25G A26C], the self-cleavage is reported as 0.21.
For GGCCGAGCUAAACACAUCUUGGCACAGUGGCUGUGGCUAGACUGCC [A4C C10A G17U G19U A25C], the self-cleavage was 0.02.
In the case of GGCAGAGCUUCACACAGCGUGGCAAAGUGGCUGUAGCUAGACUGCC [C10U A11C G35A], the self-cleavage is reported as 0.
Work on GGCAGAGCUCAACACUGCUUGGCAAAGUGGCUGUGGCUAUACUGCC [A16U G19U G40U] yielded a self-cleavage of 0.04.
GGCAGAGCUCACCACAGUGUGGCAAAGUGGCUGAGGCUAGAUUUCC [A12C C18U U34A C42U G44U] showed a self-cleavage of 0.
GGCAGAGCUCAACUCAGCGGGGCAAAGUGGCUGUGGUUAGACUGUC [A14U U20G C37U C45U] gave a self-cleavage of 0.04.
For GGCAGAGCUCCGCACAGCGUGGCAAAGUGGCUGUGGCUAGACUACC [A11C A12G G44A], the self-cleavage was 0.02.
GGCAGAGCUCAACACAGCGUGGCAAAGUGGCUAUGGCGAGACUUCC [G33A U38G G44U] showed a self-cleavage of 0.11.
Variant GGCAGAGCUCAACACAGCGUGGCAAAGUGGCUGCGGUUAGACUGUC [U34C C37U C45U] has a self-cleavage of 0.03.
For GAUAGAGAUGAACACAGCGUGGCAAAGUGGCUGUGGCUAGACUGCC [G2A C3U C8A C10G], the self-cleavage was 0.09.
For GGCAGGGCUCAACACAGCGUGGCAAAGUGGCUGUCGCUAGACUGCA [A6G G35C C46A], the self-cleavage was 0.08.
Work on GGCAGAGCUCAACACAGCGUCGCAGAGAGGCUGUGGCUAGACUGCC [G21C A25G U28A] yielded a self-cleavage of 0.32.
GGCAUAGCUCAACACAGCGUGGAUAAGUGGCUGUGGCUCGACUGCU [G5U C23A A24U A39C C46U] gave a self-cleavage of 0.03.
In the case of GGCAGAGCUCAAAACAGCGUGGUAAAGUGGCUGUGGCUAGACUGCA [C13A C23U C46A], the self-cleavage is reported as 0.05.
